In the experiment the target is T1, hCD3 antigen on Jurkat clone E6-1 cells (human).
T1 construct: whole, on cells; also called human CD3; hCD3 (Jurkat cell)
As to the kind of experiment: flow cytometry on Jurkat cells, FITC anti-human IgG Fc, median fluorescence, 4-parameter fit.

As a reminder, the EC50 is the concentration giving half of the maximal effect. Low readings indicate greater potency, high ones weaker potency.

B1: ABC723 (ABC723_HER2/hCD3_603, anti-HER2 x anti-hCD3 BsAb in ABC603 format) (bispecific antibody, human IgG1, kappa)
heavy 1: [about 120 residues not spelt out]ASTKGQVKPEAWLSHCPSPGPGHLQLVCHVSGFYPKPVWVMWMRGEQEQQGTQRGDILPSADGTWYLRATLEVAAGEAADLSCRVKHSSLEGQDIVLYWEGSDKTHTCPPCPAPELLGGPSVFLFPPKPKDTLMISRTPEVTCVVVDVSHEDPEVKFNWYVDGVEVHNAKTKPREEQYASTYRVVSVLTVLHQDWLNGKEYKCKVSNKALPAPIEKTISKAKGQPREPQVCTLPPSREEMTKNQVSLSCAVKGFYPSDIAVEWESNGQPENNYKTTPPVLDSDGSFFLVSKLTVDKSRWQQGNVFSCSVMHEALHNHYTQKSLSLSPGK
light 1: [about 200 residues not spelt out]
heavy 2: EVQLVESGGGLVQPGGSLRLSCAASGYSFTGYTMNWVRQAPGKGLEWVALINPYKGVSTYNQKFKDRFTISVDKSKNTAYLQMNSLRAEDTAVYYCARSGYYGDSDWYFDVWGQGTLVTVSSASTKGPSVFPLAPSSKSTSGGTAALGCLVKDYFPEPVTVSWNSGALTSGVHTFPAVLQSSGLYSLSSVVTVPSSSLGTQTYICNVNHKPSNTKVDKKV[human IgG1 Fc with changes not spelt out]
light 2: AIQMTQSPSSLSASVGDRVTITCRASQDIRNYLNWYQQKPGKAPKLLIYYTSRLESGVPSRFSGSGSGTDYTLTISSLQPEDFATYYCQQGNTLPWTFGQGTKVEIKRTVAAPSVFIFPPSDEQLKSGTASVVCLLNNFYPREAKVQWKVDNALQSGNSQESVTEQDSKDSTYSLSSTLTLSKADYEKHKVYACEVTHQGLSSPVTKSFNRGEC
B1: the response was half-maximal at 3.35 nM (EC50).

B2: ABC724 (ABC724_HER2/hCD3_605, anti-HER2 x anti-hCD3 BsAb) (bispecific antibody, human IgG1, kappa)
heavy 1: [about 120 residues not spelt out]ASTKGQVKPEAWLSSCPSPGPGRLQLVCHVSGFYPKPVWVMWMRGEQEQQGTQLSEILPNANWTWYLRATLDVADGEAAGLSCRVKHSSLEGQDIILYWRGSGDKTHTCPPCPAPELLGGPSVFLFPPKPKDTLMISRTPEVTCVVVDVSHEDPEVKFNWYVDGVEVHNAKTKPREEQYASTYRVVSVLTVLHQDWLNGKEYKCKVSNKALPAPIEKTISKAKGQPREPQVCTLPPSREEMTKNQVSLSCAVKGFYPSDIAVEWESNGQPENNYKTTPPVLDSDGSFFLVSKLTVDKSRWQQGNVFSCSVMHEALHNHYTQKSLSLSPGK
light 1: [about 200 residues not spelt out]
heavy 2: EVQLVESGGGLVQPGGSLRLSCAASGYSFTGYTMNWVRQAPGKGLEWVALINPYKGVSTYNQKFKDRFTISVDKSKNTAYLQMNSLRAEDTAVYYCARSGYYGDSDWYFDVWGQGTLVTVSSASTKGPSVFPLAPSSKSTSGGTAALGCLVKDYFPEPVTVSWNSGALTSGVHTFPAVLQSSGLYSLSSVVTVPSSSLGTQTYICNVNHKPSNTKVDKKV[human IgG1 Fc with changes not spelt out]
light 2: B1 light 2
notes: also called ABC724_HER3/hCD3_605
Regarding B2, the EC50 was found to be 3.75 nM.

The values are drawn from patent US20260209385A1 (ANALYTICAL BIOSCIENCES SHANGHAI, published 2026).
